In all, about 33,000 sequences were measured (“E-score (dimensionless, -0.5 to 0.5)”: median about -0.058, highest 2% from about 0.35 on). Some of the results follow.
Each sequence was assayed on MvaT (assay: PBM 8-mer E-score (mean of HK and ME arrays) (E-score (dimensionless, -0.5 to 0.5)); higher = stronger relative binding preference; most listed sequences are background and not binding sites).
Summary of the method: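 Full-length P. aeruginosa MvaT carrying an N-terminal glutathione S-transferase tag was tested by protein binding microarray following a previously described protocol. Two universal double-stranded 60-mer arrays, ME and HK, were used, each with a constant 25-mer primer region and a variable 35-mer region covering all 8-mers. The rank-based E-score is the mean of the two arrays, parsed with a custom script. Its range runs from -0.5 to 0.5 for each 8-mer.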

Sequence | PBM 8-mer E-score
CATTCGAG | -0.124
CGTGCAGA | -0.175
CCGTGTGA | -0.199
AGCCAAAG | -0.214
ATTCGGAC | -0.172
GGCACCAA | 0.0494
GATGTAGA | 0.0574
GGTCTACA | -0.0706
AAAGCTCG | -0.0433
GTAAATGA | 0.222
AACGCAAC | 0.136
ACTAATAT | 0.407
ATCGGTCG | -0.163
CGGGACAA | -0.0691
AATTACAT | 0.327
GGTCACTA | -0.322
GTTGGTGA | -0.0719
ATTTGAGG | 0.0579
ACATGAAA | 0.205
CATATGGC | -0.0576
CAGATGGC | -0.333
CCAGAACG | -0.0882

Sequence | PBM 8-mer E-score
ACCGGTCA | -0.0672
ATCGCCCG | -0.113
AGCAGGCT | -0.175
AATTGCCC | 0.166
CTGACTTA | 0.23
ACTTCTCT | 0.161
ACTGTCAA | 0.101
ATAGAGCG | 0.0311
CTTGAGTC | -0.108
ATGGTGCA | 0.0587
CTTACATC | 0.0502
GAGACGGA | -0.227
TACCGTGA | -0.0697
CAGCTGTA | -0.11
CACCGGTA | -0.107
TATTCGAA | 0.308
AATGTACT | 0.207
CTAGTCCC | -0.241
TGACGGCA | -0.21
CAACAGAC | -0.0196
CAGAAAAC | 0.0433
GTCAACAC | 0.0224

Sequence | PBM 8-mer E-score
ACGGCTCG | -0.135
GGTACACC | -0.146
AATAGAAT | 0.292
ATCACTAG | -0.00249
CCATCGTC | -0.16
CACTGGTA | -0.126
GTACGCAC | -0.088
GAGTCCAA | -0.0567
AATTGCTC | 0.0445
ACTGATCA | -0.0902
ATGACCGC | -0.166
CTTTCCGA | -0.0238
CGCGAACA | -0.0487
CATCGCAG | -0.137
GCCGTCCA | -0.163
AGACGCTG | -0.127
GGGTGTTA | 0.0651
CCGCTTTA | -0.00314
GCCCGAAA | -0.0858
ATAGATTA | 0.256
AACGACAA | 0.186
AAATGATG | 0.127

Sequence | PBM 8-mer E-score
GACGGAGC | -0.217
ACAATCAA | 0.21
CCCTAGCG | -0.293
AATGCTCA | -0.000671
CCGTTATC | 0.0929
AGCGAAGG | -0.172
CTCCCTAA | -0.204
CACATTCG | -0.104
ATTACCGA | 0.0931
AGTCCACG | -0.2
ATCGGTGA | -0.0992
AGATTATC | 0.255
CACGGGTC | -0.226
CGCCCCTC | -0.202
GGATTCCA | -0.172
GACGGTAC | -0.169
CACCATGA | -0.146
ATCACATA | 0.198
CAGATCTA | -0.0186
GATGAGCC | -0.34

Reference: the supplement of paper PMC4466236
